# Results reported in ChEMBL document CHEMBL4888484, “Replenishing the malaria drug discovery pipeline: Screening and hit evaluation of the MMV Hit Generation Library 1 (HGL1) against asexual blood stage Plasmodium falciparum ,using a nano luciferase reporter read-out” (2022).
# Hit rate of the full screen: of about 150,000 compounds, about 540 (0.36%) showed an effect of 50% or more. The list shows a part of the results.
# System: Plasmodium falciparum
# Experiment: Primary screen in NF54 nanoGlo assay, in single point, at 2uM, 72h; a lower Z score goes with more inhibition
# Type: functional, Erythrocyte
# Conditions: timepoint 72 hour
Compound,% Inhibition [%],Z score
CC(C)c1cncc(NC(=O)[C@H](C)c2ccncc2)c1,-5,0.89
O=C(NC(Cc1ccncc1)[C@H]1C[C@H](O)C1)c1cnco1 (stereo partly drawn),-18,2.73
Cc1sc(CN2CCOCC2)nc1-c1cc(F)ccc1F,1,-0.14
Cc1ccc(C(=O)Nc2cc(C(=O)N3CCCCC3C)cc(C(=O)N3CCCCC3C)c2)cc1 (stereo not drawn),6,-0.87
C[C@H]1CCCN(c2ccn3c(=O)n(CC(=O)NCc4ccccc4)nc3n2)C1,0,0.05
C[C@]1(O)C[C@@H](NS(=O)(=O)c2cc(Cl)sc2Cl)C1,1,-0.06
Cc1ncn(-c2ccc(C(=O)OCc3ccccc3)cn2)n1,-7,0.82
CC[C@H](C)N(C)CCNC(=O)NCc1cc(C(F)(F)F)on1,-7,0.87
Cn1nncc1CNc1ncc(Br)cc1CO,-1,0.15
CN1C(=O)[C@@H](c2ccccc2)CC12CCN(C(=O)c1ccc(C#N)cc1)CC2,-12,1.13
Cc1ccc2oc(C(=O)N3CC[C@H](O)CC34CCC4)cc2n1,4,-0.57
CCc1csc(N2CC(c3n[nH]c(C)n3)C2)n1,-3,0.61
COc1c(C(=O)N2CCN(c3cccc(C)n3)C[C@@H]2C)c(C)nn1C,13,-1.26
O=C(Nc1ccccc1Cc1ccccc1)N1CCN(C(=O)c2ccccc2)CC1,-8,1.1
COc1cccc(N2CCN(C(=O)c3cc(-c4ccccc4)c(N4CCCCC4)s3)CC2)c1,-8,0.95
COCc1nc([C@@H]2CCCCCN2C)n(Cc2ccc(OC)cc2)n1,-9,1.66
COC[C@@H]1CCC[C@@H]1Nc1nc(-c2ccccn2)nc2c1CCNC2,-4,0.61
Cc1ccc(CNC(=O)[C@@H]2C[C@H](n3cnnn3)CN2Cc2ccc(OCc3ccccc3)cc2)cc1,-9,1.27
CC(=O)Nc1nsc(N2CCC(C(=O)N3CCN(c4ccccc4Cl)CC3)CC2)n1,-20,3.22
Cn1cc(S(=O)(=O)NCc2cn(-c3ccsc3)nn2)cn1,7,-1.02
N#Cc1ccc(C(=O)N2CCCN(C(=O)c3cccnc3)CCC(=O)NCC2)cc1,-16,1.82

Compound,% Inhibition [%],Z score
CC(C)N(C)c1ccc(Br)cn1,-11,1.44
O=C1c2ccccc2C(=O)N1Cc1cc(-c2ccco2)on1,-11,1.84
Cn1cc(C(N)=O)cc1C(=O)Oc1ccc(F)c(C(F)(F)F)c1,6,-0.59
O=S(=O)(c1c(Cl)cccc1Cl)N1CCC[C@H](c2nc3ccccc3s2)C1,-5,0.54
Cc1cnc(N[C@@H](C)CCn2cccn2)nc1N(C)C,7,-1.26
Cc1ccc(C(=O)N[C@H]2CC(=O)N(c3ccccc3)C2)c(=O)[nH]1,6,-0.76
CCc1cc(C(=O)NC[C@@]2(C)CCC(=O)N2)ccc1O,-15,1.96
Cc1ccc2nc(C[C@H]3CN(C4CCOCC4)CC[C@H]3CC(=O)O)[nH]c2c1,3,-0.33
C[C@H](NCc1ccccc1F)c1noc(Cc2ccccc2)n1,-8,1.3
CC1CCN(c2onc(-c3ccccc3)c2CN(Cc2ccccc2)C(=O)c2cccs2)CC1,-3,0.28
Cc1cccc(C)c1NC(=O)N1CCCc2n[nH]cc21,2,-0.28
COc1ccc(OCC2CCN([C@@H](C)C(=O)Nc3nncs3)CC2)cc1,-6,1.2
O=C(Nc1cccc2cccnc12)N1CCOCC1CC(O)c1cccs1 (stereo not drawn),32,-4.32
CS(=O)(=O)N1CCC[C@@H]1CNC(=O)CC1CCC2CC12 (stereo partly drawn),-1,0.12
O=C(Cn1c(=O)[nH]c2c(-c3ccccc3F)c[nH]c2c1=O)NC1CCCCCC1,10,-1.2
CCCCN(C(=O)NC(=O)Nc1ccccc1Br)S(C)(=O)=O,-10,1.56
CCN(CC)CCN(C)C(=O)c1cnn(-c2nccc(-c3cccs3)n2)c1C,7,-0.95
CCOC(=O)c1nn(Cc2ccncc2)c2c1CN(C(=O)CCc1ccc3c(c1)OCO3)CC2,-5,0.71
O=C(Cn1cc(C2CC2)nn1)Nc1cccc(Nc2ccccc2)c1,-19,2.33
CC(C)c1ccc(NC(=O)[C@H]2CCCN(c3cnc4ccccc4n3)C2)cc1,-17,1.56
Fc1ccccc1-c1c[nH]c([C@@H]2CCCN2Cc2cccnc2)n1,-2,0.21

Compound,% Inhibition [%],Z score
Cc1nn(C)c(C)c1[C@H](C)NS(=O)(=O)CC1CCCC1,-4,0.8
O=C(c1onc2c1CCCC2)N1CCn2c(Cc3cccc(F)c3)nnc2C1,4,-0.71
Cc1sc(NC(=O)c2ccccc2Cl)nc1-c1ccc2c(c1)NC(=O)[C@H](C)O2,36,-1.31
CCCCS(=O)(=O)N1CCC(O)(Cc2nc(C)cs2)CC1,-14,1.88
Cc1cc(C)c2c(C)c(C(=O)Nc3cccc(-c4nc5ccccc5s4)c3)oc2c1,16,-1.84
Fc1ccc(N2CCC(NC[C@@H](c3cccnc3)N3CCCCC3)CC2)cc1F,1,-0.19
CCc1c(C(=O)N2CC[C@H](c3sccc3C)[C@@H](O)C2)csc1C,1,-0.18
COc1cccc(CC(=O)Nc2c(C(=O)N3CCCCCC3)oc3ccccc23)c1,-19,2.72
Cc1cccc(N2CCN(S(=O)(=O)c3cnc(C)s3)CC2)c1,-21,3.58
O=C1CCC(C(=O)N(Cc2ccccc2)Cc2nccs2)=NN1,-3,0.52
COc1ccc(C(CN2CCN(C)CC2)NCC2CC=CCC2)cc1 (stereo not drawn),13,-1.92
COc1cc2c(cc1C(=O)N1CC(C)(C)[C@@](C)(O)C1)CCC2,-4,0.69
CCc1ccccc1-c1nccn1CCN(C)C,-10,1.67
CC(C)CC(C#N)CN1CCC(C(N)=O)C1 (stereo not drawn),14,-1.63
C[C@@H](c1nc(-c2cccnn2)no1)N1CCCC1=O,-8,0.73
Nc1ncc(CN2CCCC23CCCCC3)s1,-11,1.09
O=C(Nc1ccc(S(=O)(=O)Nc2nccs2)cc1)c1ccc2c(c1)OCO2,-5,0.87
CCC1(CNC(=O)NCCNC(C)=O)CCCC1,-4,0.5
CCNC(=O)N(Cc1c(CC)nn(-c2ccc(F)cc2)c1Oc1ccccc1)C[C@H]1CCCO1,-12,1.04
Cc1ccc(CNC(=O)c2ccc(C)nc2C2CCN(Cc3cccs3)CC2)cc1,-15,1.65
COc1ccc(CCn2c(N3CCOCC3)nc3c2c(=O)n(C)c(=O)n3C)cc1,29,-3.88

Compound,% Inhibition [%],Z score
O=C(Nc1cc2ccc(Br)cn2n1)C1CC12CCOC2 (stereo not drawn),-11,1.25
Cn1cncc1CNC[C@H]1CCCN1CC1CCCCC1,3,-0.25
Cc1ccc2c(c1)CN(C(=O)c1cccc(OC(C)C)n1)CCO2,-8,1.12
Cc1ccc(N2C(=O)c3cc(-c4ccco4)nn3C[C@@]2(C)C(=O)NC2CCCCCCC2)cc1C,-13,2.41
CCCc1cc(-c2nc(CCOC)no2)n(C)n1,-8,1.43
Cc1c(CCC(=O)N2CCCO[C@H](C(C)C)C2)cnn1C,2,-0.31
C[C@H](OC(=O)c1ccc2c(c1)CCC2)C(=O)Nc1ccc(S(N)(=O)=O)cc1,-8,1.42
CC(C(=O)NC1CCCC1(C)CO)c1ccc(Cl)s1 (stereo not drawn),-6,0.69
Cc1cc(C)cc(N2C(=O)CN(S(=O)(=O)c3ccccc3)C[C@@]2(C)C(=O)NC2CCCCCC2)c1,-14,1.73
CC(C)Oc1cnccc1NC(=O)N1CCOCC[C@@H]1C,-3,0.57
C=CCC[C@@H](CN1CCOCC1)Oc1cc(C(F)(F)F)ccn1,2,-0.26
Cc1cc(NC(=O)CN(C)c2c(F)cccc2F)on1,-43,5
Fc1ccc(CC2CCN(c3ncnc4nc[nH]c34)CC2)cc1F,-7,0.89
CCCc1noc(CCCC(=O)Nc2ccc(-n3cc[nH]c3=O)cc2)n1,-18,2.85
Cc1ccc(S(=O)(=O)CCc2noc(C(=O)NCCN3CCCC3)n2)cc1,-2,0.26
Cc1ccc(-c2nccn2CCCO)c(Cl)c1Cl,-8,1.23
COc1cccc(CNC(=O)c2ccc(-n3nnc4cccnc43)c(C)c2)c1,-12,1.64
O=C(NCCC1=CCCCC1)c1cccc2sc(N3CCCc4ccccc43)nc12,-9,1.11
c1ccc(C(C[C@H]2CN(Cc3nccs3)CCO2)c2ccccc2)cc1,-12,1.53
Cc1[nH]ncc1CCCNc1noc(C(C)(C)C)n1,1,-0.11
Cn1nccc1[C@H](O)c1cc2n(n1)CCN(c1ncc(Cl)cn1)C2,-16,1.46
